# Measured values: the RNAGym collection of RNA variant scans (doi:10.1093/nar/gkz1192)
# Read counts are not given, so values of variants with three or more changes are uncertain.
# B1: CPEB3 Ribozyme (parent)
# chain: UAACAGGGGGCCACAGCAGAAGCGUUCACGUCGCAGCCCCUGUCAGAUUCUGGUGAAUCUGCGAAUUCUGCUGUAUAUCUC
# Variants of: B1
# Assay: self-cleavage, relative activity (ratio to wild type); higher = more cleavage; in vitro, sequencing
# How it was run: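 Libraries of CPEB3 self-cleaving ribozyme mutants came from rounds of error-prone PCR and carried barcodes, which DNA sequencing matched to variants. In vitro transcription used T7 RNA polymerase at 37°C for 5 hours, with a further 15 min in DNase I before EDTA stopped the reaction; the ribozymes cleaved during both steps. The RNA was reverse transcribed with template switching and sequenced on Illumina. Relative activity is the cleaved/total read fraction of a variant divided by that of the unmutated ribozyme, averaged over three batches with at least 5 reads.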
row,Variant,self-cleavage
1,G9A A18G A20G G33A U43A A47U U48C,0.06
2,G9A A18G A28U,0.24
3,G9A A18G A35G C39U,0.11
4,G9A A18G A56G,0.25
5,G9A A18G C40U U41A,0.23
6,G9A A18G C40U U41A A45U A57G,0.21
7,G9A A18G C40U U41A A57U U74C,0.04
8,G9A A18G C40U U41A U66C,0.13
9,G9A A18G G24A A57G,0.04
10,G9A A18G G24A U51C,0.14
11,G9A A18G U25C U69C U78C,0.05
12,G9A A18G U26A C32A A35G,0.23
13,G9A A18G U26C C40U U41A,0.05
14,G9A A18G U31A U78A,0.06
15,G9A A18G U31C U49C G55U U76A,0.05
16,G9A A18G U41C U54G,0.04
17,G9A A18G U72C A77G,0.24
18,G9A A18U A21G U49C,0.07
19,G9A A18U A21G U51A A56U,0.05
20,G9A A18U A28U G30A U80C,0.06
21,G9A A18U A35G,0.3
22,G9A A18U C29U C40U A47G U60C A75U,0.01
23,G9A A18U C81U,0.25
24,G9A A18U G33A G52C U54A A64U U69C,0.09

row,Variant,self-cleavage
1,G9A A18U U25C U60C A64G U74A,0.06
2,G9A A20G A28G C38U U49C,0.04
3,G9A A20G A28G U43C,0.04
4,G9A A20G A35U U43C U49A U78C,0.2
5,G9A A20G A45U U48C C81U,0.27
6,G9A A20G G30U G42A U80C,0.08
7,G9A A20G U43C C50A A65G U67C,0.04
8,G9A A20G U54C U67C,0.14
9,G9A A20U A28C,0.16
10,G9A A20U A28C U49C A56G U66C,0.05
11,G9A A20U C29U A45G,0.06
12,G9A A20U C39U,0.08
13,G9A A20U G24A A35G U41C U43C G70A,0.05
14,G9A A20U G30A A35U A57G U69A,0.04
15,G9A A20U G61C U78C U80C,0.05
16,G9A A20U U25A,0.12
17,G9A A20U U31C G53A U60A G63U A75G,0.1
18,G9A A20U U43C,0.06
19,G9A A20U U49C,0.17
20,G9A A20U U49C C71A A75G,0.04
21,G9A A20U U78A,0.05
22,G9A A21G A35U U69C U80C,0.08
23,G9A A21G A64U,0.08
24,G9A A21G C39G A56G U72C,0.05

row,Variant,self-cleavage
1,G9A A21G U25C A56U U60A,0.03
2,G9A A21G U25C U41C,0.41
3,G9A A21G U25C U51G,0.05
4,G9A A21G U31C A35U A56G U80C,0.18
5,G9A A21G U41C U49A U54G A57G U67C,0.03
6,G9A A21G U43C U60C C62U U78G,0.04
7,G9A A21G U54C U67C C68A,0.05
8,G9A A21U A28G U67A U72A A77G U80A,0
9,G9A A28C C40A,0.16
10,G9A A28C U43G A75U,0.07
11,G9A A28C U49A A57G,0.05
12,G9A A28G A47U G52A A64G C68A U72A,0.02
13,G9A A28G A56U,0.21
14,G9A A28G A77C,0.05
15,G9A A28G C32U G36C A56G A64G U74C,0.03
16,G9A A28G U60A A77G,0.13
17,G9A A28U A65G U72A A77G,0.04
18,G9A A28U G33A U43C U60A A65G,0.04
19,G9A A28U G70C,0.15
20,G9A A28U U41C U58C U69C,0.05
21,G9A A28U U41G U49C U74G,0.22
22,G9A A28U U49C C68A C71G,0.03
23,G9A A28U U72A,0.19
24,G9A A35C U43A G52A,0.19

row,Variant,self-cleavage
1,G9A A35C U67C U80C,0.13
2,G9A A35G A56U A65G,0.08
3,G9A A35G C37U A75U,0.31
4,G9A A35G G36A U80C,0.07
5,G9A A35G U41C U48C C81A,0.75
6,G9A A35G U43C A45G A57G U67C U80G,0.06
7,G9A A35G U49C U51G U66C U74C,0.07
8,G9A A35G U66C,0.31
9,G9A A35G U67C U72C A77U,0.1
10,G9A A35G U69G,0.49
11,G9A A35U U41A A56G,0.05
12,G9A A35U U51C U78C,0.05
13,G9A A45G A56G,0.37
14,G9A A45G A57G U69C,0.14
15,G9A A45G U48C U51A U54A A57G U76C,0.08
16,G9A A45G U54A A56G,0.2
17,G9A A45G U67C,0.06
18,G9A A47C U48C A64G,0.09
19,G9A A47G A57G,0.13
20,G9A A47G A57G U60G,0.06
21,G9A A47G A57G U72G,0.41
22,G9A A47G U80C,0.27
23,G9A A56G U66G U72C,0.05
24,G9A A56U U60C,0.06

row,Variant,self-cleavage
1,G9A A56U U66C,0.06
2,G9A A56U U69C C71A,0.07
3,G9A A57U A75U,0.07
4,G9A A64G U80C,0.23
5,G9A A65G U66C U72C,0.04
6,G9A C11A A13G A20U U43C U49C U72C,0.06
7,G9A C11A A18U C32U U58C U76C,0.05
8,G9A C11A C23G C32A U51A U69C U72A,0.01
9,G9A C11G G19C U31A A65G,0.21
10,G9A C11G U25C U54C U72A,0.05
11,G9A C11G U60C U66C,0.06
12,G9A C11G U69C U72A A77G,0.05
13,G9A C11U A64U,0.05
14,G9A C11U C32U U60C U72A,0.04
15,G9A C11U C34U C40G A45U U49A A57G,0.09
16,G9A C11U G33A G55U U80A,0.05
17,G9A C11U U26C A56G,0.11
18,G9A C11U U26C A56G U80A,0.05
19,G9A C12A A57C A75U,0.15
20,G9A C12G A15U A18U A45G,0.11
21,G9A C12U A13U G63U C81U,0.33
22,G9A C12U A35G U43C U49C A56U,0.04
23,G9A C14A G33A U41G A56G,0.08
24,G9A C14A U41C U76C U80A,1.09

row,Variant,self-cleavage
1,G9A C14A U49G U78C,0.25
2,G9A C17A U31C A35U A47U U66C U72A,0.03
3,G9A C17G A20G U43C A56G,0.08
4,G9A C17G U26G U41A U80C,0.06
5,G9A C17G U41A A65G U72C U80C,0.13
6,G9A C17U A28G,0.08
7,G9A C17U C29G C44A U72A,0.05
8,G9A C17U C29G U49C,0.25
9,G9A C17U U78C,0.11
10,G9A C23A A64G C81A,0.04
11,G9A C23G G33A U51C U54C U67C U72C,0.04
12,G9A C23G U31C U66A U72C,0.04
13,G9A C23U A35G U58C G70A,0.13
14,G9A C23U U31A A35U U43A U80C C81U,0.04
15,G9A C23U U48C,0.29
16,G9A C27A A57G A77G,0.16
17,G9A C27U U49C A75G,0.35
18,G9A C29A G36U U48C U49C,0.06
19,G9A C29G C38A U69A,0.05
20,G9A C29G U54C A56C U72A U78C,0.03
21,G9A C29U A35U A45G,0.05
22,G9A C29U A45G U60G U69C,0.09
23,G9A C29U A64G,0.08
24,G9A C29U U41C U51A A77G,0.09

row,Variant,self-cleavage
1,G9A C29U U51C,0.13
2,G9A C32A C40U A57G,0.17
3,G9A C32U A64U,0.45
4,G9A C34A U66C U69A U72C U74C,0.1
5,G9A C34G A35G U60C A65U,0.06
6,G9A C34U C38A U51A U69A,0.05
7,G9A C34U C40G A45U U49A A57G U78C,0.03
8,G9A C34U C40G A45U U49A A65U,0.04
9,G9A C38U U43C A56G A57G U67A,0.04
10,G9A C39A U74C A75G,0.09
11,G9A C39U C71U,0.23
12,G9A C39U G52C U60C A65G U69G U80A,0.03
13,G9A C40A G63A A64C A77U,0.03
14,G9A C40G U43C U54A U66C U69C U78C,0.05
15,G9A C40U A45G A64G,0.07
16,G9A C44U A56G,0.05
17,G9A C68A U78C,0.36
18,G9A C71U U78A,0.31
19,G9A G10A A15G A47G,0.33
20,G9A G10A A18G U72A,0.12
21,G9A G10A A28G C39U G55C,0.05
22,G9A G10A C11U U69A,0.19
23,G9A G10A G30C A65G U80A,0.21
